Assay results: PubChem BioAssay AID1476 (National Center for Advancing Translational Sciences (NCATS), 2009)
In all, about 200,000 compounds went through this assay and about 4,500 (2.2%) were called active. Inconclusive results, whose numbers are uncertain, are shown with a selection of clear calls. The call rests on the fitted dose curve; in most records, active means well fitted inhibition curve with a large enough effect; inconclusive means small, poorly fitted or top-dose-only effect, or effect the other way; inactive means flat fitted curve, though single readings scatter. Potencies beside an inconclusive call are fits to weak or partial responses and may not hold up.

The molecules below were run against Cruzipain (Trypanosoma cruzi) (UniProt P25779) (assay: qHTS Assay for Promiscuous and Specific Inhibitors of Cruzain (without detergent)). Conditions: purified cruzain, Z-FR-AMC fluorescence, no detergent.
Chain of UniProt P25779 (P25779 whole entry, looked up): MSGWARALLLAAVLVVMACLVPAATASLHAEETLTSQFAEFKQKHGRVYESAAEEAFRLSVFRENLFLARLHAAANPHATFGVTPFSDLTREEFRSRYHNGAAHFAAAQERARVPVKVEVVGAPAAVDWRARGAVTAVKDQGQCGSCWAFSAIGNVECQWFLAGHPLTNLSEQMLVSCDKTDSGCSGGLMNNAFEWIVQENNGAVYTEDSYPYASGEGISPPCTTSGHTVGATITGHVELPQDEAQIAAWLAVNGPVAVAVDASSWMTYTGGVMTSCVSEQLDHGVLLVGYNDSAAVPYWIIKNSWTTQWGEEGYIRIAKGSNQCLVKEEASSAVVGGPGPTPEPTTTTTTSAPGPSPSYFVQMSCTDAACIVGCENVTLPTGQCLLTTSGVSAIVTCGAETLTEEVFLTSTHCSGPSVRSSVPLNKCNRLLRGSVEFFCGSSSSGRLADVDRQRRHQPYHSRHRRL
Procedure, shortened: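 Detergent-free condition (0.00005% Triton X-100) in acetate buffer pH 5.5 with DTT. 1.5 nM enzyme and compound were pre-mixed 15 min, then 2 uM Z-FR-AMC substrate added; reaction progress from fluorescence change between first and third reads (60 s).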
Further: nearly all actives have a fitted effect of over 40% in size.
Potency means the concentration at half of the fitted maximal effect; tags describe the fitted curve by direction and shape.
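Wherever max response, negative = inhibition is given: plate controls were enzyme without inhibitor for no effect and buffer without enzyme for full effect.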

Question: `Cc1c(C(=O)OC2CCC(C)CC2)[nH]c2c1C(=O)CC(c1ccc(N(C)C)cc1)C2` (centres undefined) was tested. Which max response, negative = inhibition did it give?
Answer: inactive: -2.57%

Question: `COc1ccc(S(=O)(=O)c2c(C(=O)c3ccc(C)c(C)c3)cnc3ccc(C)cc23)cc1` was tested. Which Potency did it give?
Answer: active: 12.6 µM

Question: How did the Potency turn out when `CCOc1ccc(S(=O)(=O)N2CCN(c3ccc(C)cc3C)CC2)cc1` was run?
Answer: inconclusive: 25.1 µM [inhibitor, single point]

Question: `O=c1c(CCc2ccccc2)nc2cnc(N3CCNCC3)nc2n1Cc1ccc(F)cc1` was tested. Which max response, negative = inhibition did it give?
Answer: inactive: -3.97%

Question: Which Potency does the source give for `CCOc1cc2c(cc1OCC)C(c1ccccc1)N(c1ccccc1)C(=O)C2` (centres undefined) here?
Answer: inconclusive: 39.8 µM [activator, single point]

Question: Which max response, negative = inhibition does the source give for `O=C(O)CBr` here?
Answer: inactive: -2.05%

Question: Which Potency does the source give for `CN(C)S(=O)(=O)c1cccc(NC(=O)COC(=O)c2cc(-c3cccc(Br)c3)nc3ccccc23)c1` here?
Answer: active: 10 µM

Question: Which Potency does the source give for `CC1CCc2c(sc(NS(=O)(=O)c3ccccc3)c2C(=O)OC(C)C)C1` (centres undefined) here?
Answer: inconclusive: 12.6 µM [inhibitor, partial curve]

Question: How did the Potency turn out when `Cc1ccc(NC(=O)N2CCC3(CC2)Oc2ccccc2C(=O)N3Cc2ccc(F)cc2)cc1` was run?
Answer: inconclusive: 25.1 µM [activator, partial curve]

Question: For `CCNC(=O)c1ccc2c(c1)sc1nc(-c3cccc(OC)c3)cn12`, which max response, negative = inhibition is on record?
Answer: inactive: -1.78%

Question: For `COc1ccc(/C=C/c2nc(C#N)c(NCc3ccc(C)cc3)o2)cc1OC`, which Potency is on record?
Answer: inconclusive: 39.8 µM [activator, single point]

Question: How did the Potency turn out when `Cc1cc(C)c(NC(=O)CS(=O)CC(=O)N2CCN(c3ccc(F)cc3)CC2)c(C)c1` (centres undefined) was run?
Answer: inconclusive: 39.8 µM [activator, single point]

Question: `COCCNC(=O)CNC(=O)c1nn(-c2ccc(OC)c(Cl)c2)c(=O)c2ccccc12` was tested. Which Potency did it give?
Answer: inconclusive: 39.8 µM [activator, single point]

Question: How did the Potency turn out when `Cc1ccc(SCCC(=O)OCC(=O)Nc2ncc(Cl)cc2Cl)cc1` was run?
Answer: inconclusive: 25.1 µM [inhibitor, single point]

Question: With `COc1cc(OC)cc(C(=O)Nc2ccc3nc4n(c(=O)c3c2)CCCCC4)c1` as the molecule, how does the Potency read?
Answer: inconclusive: 25.1 µM [activator, single point]

Question: `COc1cccc(/C=N/NC(=O)CN(CCc2ccccc2)S(=O)(=O)c2ccc(NC(C)=O)cc2)c1` was tested. Which Potency did it give?
Answer: inconclusive: 39.8 µM [activator, single point]

Question: `O=C(Nc1cccc(Cl)c1)c1cc(-c2ccc3c(c2)OCO3)on1` was tested. Which Potency did it give?
Answer: inconclusive: 31.6 µM [inhibitor, single point]

Question: With `O=C(CSc1nnnn1-c1cccc(Cl)c1)Nc1ccc2c(c1)CCC2` as the molecule, how does the Potency read?
Answer: inconclusive: 39.8 µM [inhibitor, single point]

Question: Which Potency does the source give for `COc1ccc(O[C@H]2C=C[C@@H](c3ccccc3)O[C@@H]2COC(=O)CC/C(C)=N/O[C@H](C)c2cn([C@@H]3COC[C@H]3O)nn2)cc1` here?
Answer: inconclusive: 20 µM [activator, partial curve]

Question: With `O=C1CS(=O)(=O)C2(C(=O)N(Cc3ccccc3)c3ccccc32)N1c1ccc(F)c(Cl)c1` (centres undefined) as the molecule, how does the Potency read?
Answer: active: 2 µM

Question: Which max response, negative = inhibition does the source give for `Cn1c(SCC(=O)Nc2sc3c(c2C#N)CCC3)nnc1C1COc2ccccc2O1` (centres undefined) here?
Answer: inactive: -16.4%

Question: With `COCCn1c(C)cc(C(=O)COC(=O)c2ccc(N3CCCC3=O)cc2)c1C` as the molecule, how does the Potency read?
Answer: inconclusive: 39.8 µM [activator, single point]

Question: How did the max response, negative = inhibition turn out when `COc1ccc(NS(=O)(=O)c2ccc3[nH]c(=O)ccc3c2)cc1OC` was run?
Answer: inactive: 5.94%

Question: Which Potency does the source give for `CCOC(=O)C1=C(C)N=C2SCCC(=O)N2C1c1ccc(OCc2ccccc2)c(OC)c1` (centres undefined) here?
Answer: inconclusive: 6.31 µM [activator, full curve]

Question: `Cc1cc(C)cc(NC(=O)Cn2c(=O)oc3cc(S(=O)(=O)N4CCC(C)CC4)ccc32)c1` was tested. Which Potency did it give?
Answer: inconclusive: 31.6 µM [inhibitor, single point]

Question: `CCC1=C(OC(=O)N(CC)CC)N2C(=O)OC(=NCCc3c[nH]c4ccccc34)[C@]2(C)[C@H]2C1=CC[C@H]1C(=O)N(CC(=O)OC)C(=O)[C@H]12` was tested. Which Potency did it give?
Answer: inconclusive: 12.6 µM [activator, partial curve]

Question: Which Potency does the source give for `Cc1ccc(C)c(-n2c(CNC(=O)c3ccco3)nnc2SCC(=O)N2CCc3ccccc32)c1` here?
Answer: inconclusive: 31.6 µM [activator, single point]

Question: For `Cc1ccc(C)c(N2C(=O)N(Cc3cccc(C(F)(F)F)c3)c3ccccc3S2(=O)=O)c1`, which Potency is on record?
Answer: inconclusive: 39.8 µM [inhibitor, single point]

Question: For `O=C(Nc1ccc(F)cc1F)c1cc(S(=O)(=O)N2CCCCC2)c[nH]1`, which max response, negative = inhibition is on record?
Answer: inactive: -8.43%

Question: With `CCN(CC)C(=O)Cn1c(=O)n(Cc2ccc(C(=O)NCCCOC)cc2)c(=O)c2ccccc21` as the molecule, how does the max response, negative = inhibition read?
Answer: inactive: -5.74%

Question: Which max response, negative = inhibition does the source give for `CCC1CCCN1Cn1cnc2c([nH]c3ccc(Cl)cc32)c1=O` (centres undefined) here?
Answer: inactive: -8.94%

Question: Which Potency does the source give for `CCOC(=O)N1CCC(NC(=O)Cn2c3c(c(-c4ccccc4Cl)cc2=O)CCC3)CC1` here?
Answer: inconclusive: 39.8 µM [activator, single point]

Question: Which Potency does the source give for `Cc1nn(Cc2ccc(Cl)cc2)c(C)c1NC(=O)CCCn1nc(C)c([N+](=O)[O-])c1C` here?
Answer: inconclusive: 25.1 µM [activator, partial curve]

Question: How did the Potency turn out when `Cc1c(NC(=O)c2cccc(-c3cc4ccccc4oc3=O)c2)cccc1-c1nc2ncccc2o1` was run?
Answer: inconclusive: 31.6 µM [inhibitor, single point]

Question: With `CCn1c2ccccc2c2nc3cc(OC)c(OC)cc3nc21` as the molecule, how does the Potency read?
Answer: inconclusive: 31.6 µM [activator, single point]

Question: Which Potency does the source give for `CCOC(=O)c1c(C)[nH]c(C2=NNC(=Nc3ccccc3)SC2)c1C` here?
Answer: inconclusive: 39.8 µM [inhibitor, single point]

Question: How did the max response, negative = inhibition turn out when `C=C1C[C@@]23CC4C5[C@@]6(C)C[C@H](O)C[C@@]57C2[C@H](O)[C@@H]1[C@H](O)[C@H]3[C@H]7N4C6` was run?
Answer: inactive: -1.32%

Question: How did the Potency turn out when `COc1ccc(OC)c(C(=O)CSc2ncc3c(n2)-c2ccccc2N(Cc2ccccc2C)S3(=O)=O)c1` was run?
Answer: inconclusive: 39.8 µM [inhibitor, single point]

Question: How did the Potency turn out when `COc1ccc(/C=C/C(=O)Oc2ccc(/C=N/NC(=O)COc3c(C)cccc3C)cc2)cc1` was run?
Answer: active: 7.94 µM

Question: For `CCCCC(=O)Nc1ccc(OCc2cc(=O)n3c(C)csc3n2)cc1`, which max response, negative = inhibition is on record?
Answer: inactive: 1.55%

Question: Which max response, negative = inhibition does the source give for `CCCc1cc(-c2n[nH]c(C(=O)OCC)c2-c2cscn2)c(O)cc1O` here?
Answer: inactive: -0.551%

Question: For `CS(=O)(=O)N1CCc2cc(-c3csc(NC(=O)C(c4ccccc4)c4ccccc4)n3)ccc21`, which Potency is on record?
Answer: active: 7.94 µM

Question: How did the Potency turn out when `CCn1c(=O)c(C(=O)Nc2ccccc2S(N)(=O)=O)c(O)c2ccccc21` was run?
Answer: inconclusive: 39.8 µM [activator, single point]

Question: For `COc1cc(C(=O)N2CCN(c3cc(Cl)ccc3Cl)CC2)cc(OC)c1OC`, which Potency is on record?
Answer: inconclusive: 39.8 µM [activator, single point]

Question: With `O=C(NCc1ccccc1Cl)c1c2c(nc3ccccc13)C(=O)N(C1CCCCC1)C2` as the molecule, how does the Potency read?
Answer: inconclusive: 31.6 µM [inhibitor, partial curve]

Question: `CN(C)C(=O)c1ccc(-c2cc(NCc3ccccc3)ncn2)cc1` was tested. Which max response, negative = inhibition did it give?
Answer: inactive: 0.802%

Question: Which Potency does the source give for `O=C(NCC1CCCO1)c1c(O)c2cccc3c2n(c1=O)CC3` (centres undefined) here?
Answer: inconclusive: 39.8 µM [activator, single point]

Question: Which Potency does the source give for `COc1cccc(Nc2nc3ccccc3c3nncn23)c1` here?
Answer: inconclusive: 39.8 µM [activator, single point]

Question: Which Potency does the source give for `CCOC(=O)c1cc2c(=O)n3ccccc3nc2n(CCCOC)c1=NC(=O)C(C)(C)C` here?
Answer: inconclusive: 39.8 µM [inhibitor, single point]

Question: `COC(=O)c1scc(-c2ccc(C)cc2)c1S(=O)(=O)N1CCN(c2ccc(C)cc2C)CC1` was tested. Which Potency did it give?
Answer: inconclusive: 31.6 µM [inhibitor, single point]

Question: `O=C(Cn1nc(-c2ccc(Cl)cc2)c2ccccc2c1=O)Nc1cccc(C(F)(F)F)c1` was tested. Which Potency did it give?
Answer: inconclusive: 39.8 µM [inhibitor, single point]

Question: With `CCCCCCCCC(=O)N/N=C(\C)c1ccc(O)cc1O` as the molecule, how does the Potency read?
Answer: inconclusive: 31.6 µM [inhibitor, single point]

Question: How did the max response, negative = inhibition turn out when `CC1CN(c2ncnc3c2oc2ccccc23)CC(C)O1` (centres undefined) was run?
Answer: inactive: 2.53%

Question: How did the max response, negative = inhibition turn out when `CC1CCN(S(=O)(=O)c2ccc3nc(NCc4ccccc4)ccc3c2)CC1` was run?
Answer: inactive: -0.513%

Question: Which max response, negative = inhibition does the source give for `O=C(CSc1nnc(-c2cccs2)o1)N1CCOCC1` here?
Answer: inactive: 1.3%

Question: How did the Potency turn out when `CCOC(=O)c1cc2sccc2n1CC(=O)Nc1ccc(OC)c(OC)c1` was run?
Answer: inconclusive: 20 µM [activator, partial curve]

Question: For `CSc1ccccc1NC(=O)c1ccccc1N(Cc1ccccc1)S(C)(=O)=O`, which max response, negative = inhibition is on record?
Answer: inactive: -6.68%

Question: For `Cc1cccc(CCN(Cc2cc3cccc(C)c3[nH]c2=O)C(=O)N2CCOCC2)c1`, which Potency is on record?
Answer: inconclusive: 39.8 µM [activator, single point]

Question: For `O=S(=O)(c1ccccc1)N1CCC2(CCN(c3ccccc3)CC2)CC1`, which Potency is on record?
Answer: inconclusive: 20 µM [inhibitor, partial curve]

Question: Which max response, negative = inhibition does the source give for `O=C(CCSCc1cnn(-c2ccccc2)c1-n1cccc1)NCc1ccccc1Cl` here?
Answer: inactive: -7.01%

Question: Which Potency does the source give for `COc1c(Cl)cc(Cl)cc1/C=C/C(=O)c1ccc(NC(=O)c2cccs2)cc1` here?
Answer: active: 31.6 µM

Question: For `Cc1ccc(Cl)cc1N1CCN(C(=O)c2ccc(CS(=O)c3ccccc3)o2)CC1` (centres undefined), which Potency is on record?
Answer: inconclusive: 39.8 µM [activator, single point]

Question: For `COCCCNC(=O)c1sc2nc(C)c(C(=O)Nc3ccc(C)cc3C)c(-c3ccccc3Cl)c2c1N`, which Potency is on record?
Answer: inconclusive: 31.6 µM [activator, single point]

Question: Which Potency does the source give for `COc1ccc(-c2cnc(OC(C)(C)C)nc2OC(C)(C)C)cc1OC` here?
Answer: inconclusive: 39.8 µM [activator, single point]
